What all share (experiment): glycan array binding signal (z-score within array); higher = stronger binding
Common to all, as to conditions: glycan notation: IUPAC condensed, linker removed

For assay [1], the target named is GlcNAc(a1-4)Gal(b1-3)GlcNAc. The method in brief:
(§1)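 The binding signal is a Z-score computed within each array. Data were drawn from 3228 arrays in the Consortium for Functional Glycomics database, restricted to those with a known protein sequence. Scores were averaged over arrays of the same protein sequence at different concentrations or buffers, and over linkers, and negative values can be taken as non-binding.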

Assay [2] deals with GlcNAc(a1-4)Gal(b1-4)GalNAc. The method in brief: as §1
Assay [3] addresses GlcNAc(a1-4)Gal(b1-4)GlcNAc. The method, boiled down:
as §1

The target in assay [4] is GlcNAc(a1-4)Gal(b1-4)GlcNAc(b1-3)Gal(b1-4)Glc. The method, boiled down: as §1
In assay [5] the target is GlcNAc(a1-4)Gal(b1-4)GlcNAc(b1-3)Gal(b1-4)GlcNAc. The method in brief: as §1
Assay [6] concerns the target GlcNAc(a1-4)Gal(b1-4)GlcNAc(b1-3)Gal(b1-4)GlcNAc(b1-3)Gal(b1-4)GlcNAc. The method, boiled down: as §1
Assay [7] concerns the target GlcNAc(a1-4)Gal(b1-4)GlcNAc(b1-3)Gal(b1-4)[Fuc(a1-3)]GlcNAc(b1-3)Gal(b1-4)[Fuc(a1-3)]GlcNAc. The method in brief:
as §1

Assay [8] deals with GlcNAc(a1-6)Gal(b1-4)GlcNAc. The method in brief: as §1
Assay [9] concerns the target GlcNAc(b1-2)Gal(b1-3)GalNAc. The method, boiled down:
as §1

The target in assay [10] is GlcNAc(b1-2)Man(a1-3)[GlcNAc(b1-2)Man(a1-6)]Man(b1-4)GlcNAc(b1-4)GlcNAc. The method in brief: as §1
In assay [11] the target is GlcNAc(b1-2)Man(a1-3)[GlcNAc(b1-2)Man(a1-6)]Man(b1-4)GlcNAc(b1-4)[Fuc(a1-6)]GlcNAc. The method, boiled down:
as §1

In assay [12] the target is GlcNAc(b1-2)Man(a1-3)[GlcNAc(b1-4)][GlcNAc(b1-2)Man(a1-6)]Man(b1-4)GlcNAc(b1-4)GlcNAc. The method, boiled down:
as §1

Assay [13] deals with GlcNAc(b1-2)Man(a1-3)[GlcNAc(b1-4)][GlcNAc(b1-2)Man(a1-6)]Man(b1-4)GlcNAc(b1-4)[Fuc(a1-6)]GlcNAc. The method in brief: as §1
In assay [14] the target is GlcNAc(b1-2)[GlcNAc(b1-4)]Man(a1-3)[GlcNAc(b1-2)Man(a1-6)]Man(b1-4)GlcNAc(b1-4)GlcNAc. The method, boiled down:
as §1

For assay [15], the target named is GlcNAc(b1-2)[GlcNAc(b1-4)]Man(a1-3)[GlcNAc(b1-4)][GlcNAc(b1-2)Man(a1-6)]Man(b1-4)GlcNAc(b1-4)GlcNAc. The method, boiled down:
as §1

Assay [16] has as its target GlcNAc(b1-2)[GlcNAc(b1-4)]Man(a1-3)[GlcNAc(b1-4)][GlcNAc(b1-2)[GlcNAc(b1-6)]Man(a1-6)]Man(b1-4)GlcNAc(b1-4)GlcNAc. The method in brief:
as §1

The target in assay [17] is GlcNAc(b1-2)[GlcNAc(b1-4)]Man(a1-3)[GlcNAc(b1-4)][GlcNAc(b1-2)[GlcNAc(b1-6)]Man(a1-6)]Man(b1-4)GlcNAc(b1-4)[Fuc(a1-6)]GlcNAc. The method, boiled down: as §1
The target of assay [18] is GlcNAc(b1-2)[GlcNAc(b1-6)]Man(a1-6)[GlcNAc(b1-2)Man(a1-3)]Man(b1-4)GlcNAc(b1-4)GlcNAc. The method in brief: as §1
Assay [19] concerns the target GlcNAc(b1-2)[GlcNAc(b1-6)]Man(a1-6)[GlcNAc(b1-2)Man(a1-3)]Man(b1-4)GlcNAc(b1-4)[Fuc(a1-6)]GlcNAc. The method, boiled down: as §1

The list shows a part of the results.

B1: Cohesin-hMARCO (Homo sapiens) (protein)
chain: LDDLDAVRIKVDTVNAKPGDTVRIPVRFSGIPSKGIANCDFVYSYDPNVLEIIEIEPGDIIVDPNPDKSFDTAVYPDRKIIVFLFAEDSGTGAYAITKDGVFATIVAKVKEGAPNGLSVIKFVEVGGFANNDLVEQKTQFFDGGANVGDTTEPATPTTPVTTPTTTDDLDAASVRIVGSSNRGRAEVYYSGTWGTICDDEWQNSDAIVFCRMLGYSKGRALYKVGAGTGQIWLDNVQCRGTESTLWSCTKNSWGHHDCSHEEDAGVECSVHHHHHH
In the case of B1, the “glycan array binding signal (z-score)” value is -0.354 in assay [1]; -0.39 in assay [2]; -0.282 in assay [3]; 0.094 in assay [4]; -0.328 in [5]; -0.51 in assay [6]. Also, the “glycan array binding signal (z-score)” value in [7] is -0.104; in assay [8], -0.236; in [9], -0.478; in assay [10], -0.381; in [11], -0.111; in [12], -0.51. In addition, the “glycan array binding signal (z-score)” value in [13] was 0.119; in assay [14], -0.197; in assay [15], -0.307; in assay [16] it was -0.082; in assay [17], -0.489; in assay [18], -0.247. In addition, the “glycan array binding signal (z-score)” value in [19] was -0.244.

The record behind these values is the supplement of paper PMC8728848.
